# Among all 410,000 compounds or so, about 6,400 (1.6%) were called active. This list was built around the results that the source calls inconclusive (neither active nor inactive); the mix of calls is not that of the screen. The call rests on the fitted dose curve; in most records, active means well fitted inhibition curve with a large enough effect; inconclusive means small, poorly fitted or top-dose-only effect; inactive means no such curve, though single readings can be large or run the other way. No potency is given beside an inconclusive call; the fits are too rough.
# Target: Glucagon-like peptide 1 receptor (Homo sapiens) (UniProt P43220)
# Experiment: qHTS of GLP-1 Receptor Inverse Agonists (Inhibition Mode); further: nearly all actives have a fitted effect of over 55% in size
# Conditions: HEK293 GLP-1R CRE-luciferase, luminescence, 24 h, GLP-1R form is constitutively active; activity change, negative = inhibition: at 38.3 µM (top of the series) unless noted
# Procedure, shortened: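 Luminescence readout: a drop in cAMP-driven luciferase signal flags inverse agonism at a constitutively active GLP-1R stably expressed in HEK293. Compound exposure lasted 24 hr at 37 deg C, 5% CO2.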
# On the % scale 0 is the no-effect control and ±100 the full control effect; potency means the concentration at half of the fitted maximal effect; tags describe the fitted curve by direction and shape.
# UniProt P43220, sequence (P43220 whole entry, looked up): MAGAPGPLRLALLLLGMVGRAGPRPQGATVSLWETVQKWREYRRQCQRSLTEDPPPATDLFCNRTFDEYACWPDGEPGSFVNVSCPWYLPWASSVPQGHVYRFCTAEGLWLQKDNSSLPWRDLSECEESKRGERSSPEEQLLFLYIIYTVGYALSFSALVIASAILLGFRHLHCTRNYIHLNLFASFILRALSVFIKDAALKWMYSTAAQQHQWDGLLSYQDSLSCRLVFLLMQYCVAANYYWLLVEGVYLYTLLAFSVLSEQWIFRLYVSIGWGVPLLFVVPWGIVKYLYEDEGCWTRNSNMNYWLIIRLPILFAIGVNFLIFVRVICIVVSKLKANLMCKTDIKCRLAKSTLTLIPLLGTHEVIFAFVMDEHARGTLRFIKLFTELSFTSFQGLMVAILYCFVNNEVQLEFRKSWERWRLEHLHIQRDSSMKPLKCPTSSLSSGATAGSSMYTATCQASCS
SMILES,"activity change, negative = inhibition",Potency
Fc1ccc(-n2ncc3c(NCCC4=CCCCC4)ncnc32)cc1,inactive: 16.8%,–
COc1ccc(C(=O)Nc2cc(S(=O)(=O)c3ccc(Cl)cc3)c(O)c(C)c2C)cc1,–,"inconclusive [inhibitor, single point]"
O=C1CSC(=S)N1c1cccc(Br)c1,inconclusive: -67.3% [inhibitor],–
Cc1cc(C)c(-c2csc(NC(=O)c3n[nH]c(=O)c4ccccc34)n2)c(C)c1,–,"inconclusive [inhibitor, full curve, poor fit]"
C#CCOCCOCCOCCNc1nc(N2CCN(C(=O)CCCCCCCCCCNC(=O)Cn3cc(C[C@@H](C)O)nn3)CC2)nc(N2CCN(C(=O)CCCCCCCCCCNC(=O)[C@H](CCCCN)n3cc(C[C@@H](C)CC)nn3)CC2)n1,–,"inconclusive [inhibitor, single point]"
CC(=O)N1N=C(c2ccc(Br)cc2)CC1c1ccc(Br)cc1 (stereo unspecified),–,"inconclusive [inhibitor, single point]"
Cc1ccccc1N=Cc1c(O)n(-c2nccs2)c(=O)c2ccccc12,–,"inconclusive [inhibitor, single point]"
COc1cccc(NS(=O)(=O)c2ccc3[nH]cc(C(=O)NCCC(C)C)c(=O)c3c2)c1,–,"inconclusive [inhibitor, single point]"
CCOc1cc(C(=O)Nc2ccc(-c3nc4ccccc4s3)cc2Cl)cc(OCC)c1OCC,inactive: -6.02%,–
CCCCc1ccc(NC(=O)NCc2ccccn2)cc1,–,"inconclusive [inhibitor, single point]"
CCN(CC(=O)NC(=O)NCc1ccccc1)CC(=O)Nc1cc(Cl)ccc1C,–,"inconclusive [inhibitor, partial curve, poor fit]"
CCOC(=O)Cc1csc(SCC(=O)Nc2cc(Cl)ccc2Oc2ccccc2)n1,–,active: 10 µM
COc1ccc(/C=N/Nc2cc(C)nc3c(C)cccc23)cc1,–,"inconclusive [inhibitor, partial curve, poor fit]"
Cc1ccc(S(=O)(=O)N2CCC(C(=O)NCCCN3CCOCC3)CC2)cc1C,–,"inconclusive [inhibitor, partial curve, poor fit]"
CC(SC#N)C(=O)C12CC3CC(CC(C3)C1)C2 (stereo unspecified),–,"inconclusive [inhibitor, partial curve, poor fit]"
CC(=O)c1cc(-c2ccccc2)n(CCC(=O)NC(C)c2ccccc2)c1C (stereo unspecified),inactive: 2.08%,–
CCN1C(=O)C(CC(=O)Nc2ccc(OC)cc2)N(CCc2ccc(OC)cc2)C1=S (stereo unspecified),–,"inconclusive [inhibitor, single point]"
COc1ccc(S(=O)(=O)N2CCCC(C(=O)NCCC3=CCCCC3)C2)cc1 (stereo unspecified),–,"inconclusive [inhibitor, full curve, poor fit]"
Cc1c(Br)c(C(F)(F)F)nn1CC(=O)NCc1ccccc1,–,"inconclusive [inhibitor, partial curve, poor fit]"
O=C(Cc1ccc(F)cc1)NCCS(=O)(=O)N1CCN(c2ccccc2)CC1,–,"inconclusive [inhibitor, full curve, poor fit]"
CCn1ccnc1CN(C)Cc1nc(-c2ccccc2)no1,–,"inconclusive [inhibitor, full curve, poor fit]"

SMILES,"activity change, negative = inhibition",Potency
CC1CCCCN1CCCNC(=O)c1ccc2nc(N3CCCCC3)sc2c1 (stereo unspecified),–,"inconclusive [inhibitor, single point]"
C=CCNC(=O)C1CCN(C(=O)c2ccc(-c3ccccc3)cc2)CC1,inactive: 5.58%,–
CN1C/C(=C/c2cccs2)C(=O)/C(=C\c2cccs2)C1,–,"inconclusive [inhibitor, single point]"
CC(/C=C1\SC(=S)N(CCC(=O)Nc2ccccc2O)C1=O)=C\c1ccccc1,–,active: 5.62 µM
Cc1ccc(N(C(=O)CNC(=O)c2ccco2)C(C(=O)NCC2CCCO2)c2ccccc2)c(C)c1 (stereo unspecified),–,"inconclusive [inhibitor, single point]"
O=C(CN1C(=O)NC(c2ccccc2)(c2ccccc2)C1=O)NC1CCCCC1,–,"inconclusive [inhibitor, single point]"
CCOC(=O)c1ccc(NC(=O)NCc2ccccc2)cc1,–,"inconclusive [inhibitor, single point]"
COC(=O)c1nn(-c2ccccc2)c(Sc2ccccc2)c1/C=N/O,–,"inconclusive [inhibitor, partial curve, poor fit]"
Cc1cc(C)cc(Nc2c(F)c(F)c(F)c(F)c2C(=O)O)c1,–,"inconclusive [inhibitor, partial curve, poor fit]"
Cc1[nH]c2ccccc2c1/C=N/Nc1nc2ccccc2[nH]1,–,"inconclusive [inhibitor, single point]"
O=C1CC(c2ccccc2)CC2=C1C=Nc1ccccc1N2 (stereo unspecified),–,"inconclusive [inhibitor, partial curve, poor fit]"
CCOc1ccc(S(=O)(=O)n2nc(C)c(S(=O)(=O)N3CCCCC3)c2C)cc1,inactive: 9.53%,–
Brc1ccc(-c2nc3ccccc3s2)s1,inactive: 18.2%,–
Oc1ccccc1-c1nc2ccccc2nc1-c1ccccc1,–,active: 11.2 µM
C[C@@H](Oc1ccccc1)c1nnn(Cc2ccccc2)c1-c1c([C@@H](C)Oc2ccccc2)nnn1Cc1ccccc1,–,"inconclusive [inhibitor, partial curve, poor fit]"
COc1ccccc1N1C(=O)CC1(C#N)c1ccc(OCc2ccccc2)cc1 (stereo unspecified),–,"inconclusive [inhibitor, partial curve, poor fit]"
COc1cc(CN2CCc3nc(N4CCN(c5ccccn5)CC4)ncc3C2)cc(OC)c1OC,inactive: -17.3%,–
CC1(C)CC(=O)C(C=Nc2ccc(C(=O)c3ccccc3)cc2N=CC2=C(O)CC(C)(C)CC2=O)=C(O)C1,–,"inconclusive [inhibitor, partial curve, poor fit]"
Cc1ccc(C(=O)Nc2ccc(CN3CCCCC3)cc2)c(C)c1,–,"inconclusive [inhibitor, single point]"
Cc1ccc(NC(=O)c2ncn(CCCNCC(C)c3ccccc3)n2)cc1C (stereo unspecified),–,"inconclusive [inhibitor, partial curve, poor fit]"
CC(Sc1nc2ccccc2s1)C(=O)N(C)Cc1ccccc1 (stereo unspecified),–,"inconclusive [inhibitor, partial curve, poor fit]"

SMILES,"activity change, negative = inhibition",Potency
O=C(Nc1cc(Cl)ccc1O)c1cc(-c2ccco2)on1,inactive: 38.5%,–
CCc1nnc(NC(=O)CSc2nnc(C3CCCCC3)n2-c2ccccc2)s1,–,"inconclusive [inhibitor, partial curve, poor fit]"
CCN(CC)CC(C)(C)COC(=O)c1oc2ccccc2c1C,–,"inconclusive [inhibitor, partial curve, poor fit]"
Cc1cccc(NC(=O)C2CCCN(S(=O)(=O)c3ccc(Br)s3)C2)c1 (stereo unspecified),–,"inconclusive [inhibitor, partial curve, poor fit]"
COc1ccc(CCNC(=O)c2nn(C)c3c2CS(=O)(=O)c2ccccc2-3)c(OC)c1,–,"inconclusive [inhibitor, partial curve, poor fit]"
COC(=O)c1cc2ccsc2n1CC(=O)NCC1CCCO1 (stereo unspecified),inactive: 13.9%,–
COC(=O)c1c(NC(=S)NN2CCN(C)CC2)sc2c1CCC(C)C2 (stereo unspecified),–,active: 10 µM
CC1Sc2ccc(S(=O)(=O)N3CCC(C(=O)N(C)Cc4ccccc4)CC3)cc2NC1=O (stereo unspecified),–,"inconclusive [inhibitor, partial curve, poor fit]"
COC(=O)c1cc2oc3ccccc3c2n1Cc1c(C)cc(C)cc1C,inactive: 10.1%,–
CCc1ccc(NC(=O)CCc2nnc3n(C)c(=O)c4sccc4n23)cc1,inactive: 17.8%,–
Cc1ccnc(NC(=O)CCNC(=O)c2ccc(Cl)cc2)c1,–,"inconclusive [inhibitor, single point]"
CC1(C)C2CCC1(CS(=O)(=O)N1CCN(c3ccccc3F)CC1)C(=O)C2 (stereo unspecified),–,"inconclusive [inhibitor, single point]"
CCOC(=O)N1CCN(C2CCCN(C(=O)c3ccccc3SC)C2)CC1 (stereo unspecified),–,"inconclusive [inhibitor, full curve, poor fit]"
CCN1C(=O)[C@H]2[C@@H](c3ccc(-c4ccc(F)cc4)cc3)N[C@@](CC(C)C)(C(=O)OC)[C@H]2C1=O,–,"inconclusive [inhibitor, partial curve]"
COc1ccc([C@@H]2[C@@H]3C(=O)N(C(C)(C)C)C(=O)[C@@H]3[C@]3(Cc4ccccc4)C(=O)N(c4ccc(C(F)(F)F)cc4)C(=O)N23)cc1,–,"inconclusive [inhibitor, partial curve]"
C[C@@]12C(=O)N(Cc3ccc(F)cc3)CC(=O)N1[C@H]1c3cc(Cl)ccc3OC[C@@H]1[C@@H]2c1ccccc1,–,"inconclusive [inhibitor, single point]"
COc1ccc(-n2nc(C(=O)NCC(=O)N3CCN(C)CC3)c3ccccc3c2=O)cc1OC,–,"inconclusive [inhibitor, single point]"
Cc1ccccc1-n1c(Cn2c(=O)sc3ccccc32)nnc1SCC(=O)Nc1nccs1,–,"inconclusive [inhibitor, single point]"
O=C(/C=C/c1cn(-c2ccccc2)nc1-c1ccc2c(c1)OCCO2)NCCCN1CCOCC1,–,"inconclusive [inhibitor, full curve, poor fit]"
